The values below come from patent publication US20120100130A1, “Novel Receptor Hetero-Dimers/-Oligomers” (DIMERIX BIOSCIENCE PTY LTD., priority 2009, published 2012).

One assay has as its target T1, CCR2-AT2R Heterodimer (Homo sapiens, UniProt P41597+P50052).
T1 construct: expressed in transfected cells; host or cells: HEK293FT
Description: eBRET beta-arrestin 2 recruitment, cells expressing AT2R/Rluc8 and barr2/Venus with CCR2. The assay is classed as cell-based. Conditions: 10^−7M MCP1; HEK293FT cells co-expressing AT2R/Rluc8, barr2/Venus and CCR2; after about 50 minutes. Background: BRET reads energy transfer from a luciferase to a nearby fluorophore.

In another assay the target is T2, CCR2-AT1R Heterodimer (Homo sapiens, UniProt P30556+P41597).
T2 construct: expressed in transfected cells; host or cells: HEK293FT
Put plainly: eBRET beta-arrestin 2 recruitment, cells expressing AT1R/Rluc8 and barr2/Venus with CCR2. The assay is classed as cell-based. The conditions noted are these: 10^−7M MCP1; HEK293FT cells co-expressing AT1R/Rluc8, barr2/Venus and CCR2; 37 C.

Turning to monocyte chemotactic protein-1 [MCP1], the “eBRET signal (ligand-induced BRET ratio)” value is given as “approximately 0.16” with CCR2-AT2R Heterodimer and “approximately 0.05” in the assay with CCR2-AT1R Heterodimer.
